The source of these data is the supplement of paper PMC11417369.

The other results are listed elsewhere or left out.

The test system of this experiment is PF3D7_0420300 AP2 domain 1 (GST-tagged). Put plainly: gcPBM binding intensity (ln(normalized median fluorescence intensity)); higher = stronger DNA binding. Put shortly:
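Plasmodium falciparum DNA-binding domains carrying a GST tag were expressed in E. coli and applied for 1 h, at about 25 μg on average, to an Agilent 4 × 180k array. The array held primer-extended double-stranded 36-bp intergenic genomic probes together with negative controls, and binding took place in 1× PBS with 1% milk, 0.2 mg/ml BSA, 0.5% salmon testes DNA and 0.03% Triton X-100. An Alexa488 anti-GST antibody detected bound protein, and the array was scanned at 488 nm. Binding intensity is taken as the highest Masliner-normalised natural-log median intensity across replicate spots of either probe orientation.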
As for “ATATTTATATATTGCACACAAAAAAAAAAAAAAATC [CACACA_site1629]”, the “gcPBM binding intensity (ln)” value was found to be 9.51.

On to “TATATATATATGTAATGTACATAAATTTTATACCTT [XGTACX_site6991]”, for which the “gcPBM binding intensity (ln)” value was 9.17.

Regarding “TAATAAATAAAAATAGAACACACATATGTTTTTTTT [CACACA_site9185]”, the “gcPBM binding intensity (ln)” value was found to be 9.39.

Consider “CAGTAGTATATACTATGTACATATTTATATTATATT [XGTACX_site4964]”, for which the “gcPBM binding intensity (ln)” value was found to be 9.22.

As for “AAAAAAAAAAAAAAATGTACATATATATAAATAAAA [XGTACX_site5574]”, the “gcPBM binding intensity (ln)” value is 9.18.

As to “AAATATAATTAATGATGTACACTTATAGATATTGAT [XGTACX_site8435]”, the “gcPBM binding intensity (ln)” value was 9.34.

Take “GGGTTAATATTTACTACACACACTTAAAATATGTAT [CACACA_site47]”: the “gcPBM binding intensity (ln)” value was determined as 9.79.

As to “ATGTATTTTTAAAAATATAAATTATGTAACTTGTGA [XGTACX_negctrl_site620]”, the “gcPBM binding intensity (ln)” value came out at 9.12.

Consider “TATTCTCGTTCTCATACACACAAAATATACATACAC [CACACA_site7278]”, for which the “gcPBM binding intensity (ln)” value was 9.68.

With “TATAATAAAATTTTTACACACTTTAAAAAAAAAAAA [CACACA_site524]”, the “gcPBM binding intensity (ln)” value turned out to be 9.06.

Take “TACTGATATAATATAACCGTTTATGTGTATTTTTTA [XGTACX_negctrl_site81]”: the “gcPBM binding intensity (ln)” value worked out at 9.37.

As to “TTCAAATATATGTTTTCACACACAAAAGAAATGAAA [CACACA_site8671]”, the “gcPBM binding intensity (ln)” value is 9.39.

For the sequence “CGTGGAAAAAAAAACACACACAAAAAAAAAAAAAAA [CACACA_site3997]”, the “gcPBM binding intensity (ln)” value is 9.19.

As to “TTTTCTCTAAAAAGGTGTACAACTAATAATGCACTG [XGTACX_site6074]”, the “gcPBM binding intensity (ln)” value was 9.02.

Consider “ATATATATATAATATTGTACGAAAAAAAATAAAAAA [XGTACX_site974]”, for which the “gcPBM binding intensity (ln)” value amounted to 9.43.

With “TATATTAATTATAAGACACACATATAGTAATAGAAA [CACACA_site2056]”, the “gcPBM binding intensity (ln)” value was determined as 9.53.

On to “AATAAGAAAACAAATGCACACCATTTATATAGATTA [CACACA_site8261]”, for which the “gcPBM binding intensity (ln)” value was 9.56.

For “ATGGGTTAGGCGTGTACACAATTGTATGGTTTAATA [CACACA_site4812]”, the “gcPBM binding intensity (ln)” value was found to be 9.6.

“TTTATATATTTTTATCTTGATAATAATGTTTTAGAA [TGCATGCA_negctrl_site300]”: the “gcPBM binding intensity (ln)” value was determined as 8.82.

For “ACATATTTTTACTTTTGTACATATTTTTTAATTTTC [XGTACX_site640]”, the “gcPBM binding intensity (ln)” value amounted to 9.53.

For “GTATATTACATAAAATGTACATAAAAAGCGGAAAAG [XGTACX_site6905]”, the “gcPBM binding intensity (ln)” value was 9.57.

For the sequence “AAGGGAAAAATATGGTTGCACTAAAAATATGTAATT [GTGCAC_site9605]”, the “gcPBM binding intensity (ln)” value came out at 9.2.

As for “TTTCTATATAGATTTGCACACATAAAAATGCTTATA [CACACA_site2390]”, the “gcPBM binding intensity (ln)” value was 9.43.

Turning to “CTTTATACATGACATAGTACCCATTTTAGATTTGAA [XGTACX_site5240]”, the “gcPBM binding intensity (ln)” value came to 9.03.
